# Measurements as given in the supplement of paper PMC3334620.
# Over roughly 33,000 sequences, “E-score (-0.5 to 0.5)” has its median near -0.012; the highest 2% begin near 0.27. Some of the results follow.
# Target: T1, Vhr1 (UniProt P40522)
# T1 sequence: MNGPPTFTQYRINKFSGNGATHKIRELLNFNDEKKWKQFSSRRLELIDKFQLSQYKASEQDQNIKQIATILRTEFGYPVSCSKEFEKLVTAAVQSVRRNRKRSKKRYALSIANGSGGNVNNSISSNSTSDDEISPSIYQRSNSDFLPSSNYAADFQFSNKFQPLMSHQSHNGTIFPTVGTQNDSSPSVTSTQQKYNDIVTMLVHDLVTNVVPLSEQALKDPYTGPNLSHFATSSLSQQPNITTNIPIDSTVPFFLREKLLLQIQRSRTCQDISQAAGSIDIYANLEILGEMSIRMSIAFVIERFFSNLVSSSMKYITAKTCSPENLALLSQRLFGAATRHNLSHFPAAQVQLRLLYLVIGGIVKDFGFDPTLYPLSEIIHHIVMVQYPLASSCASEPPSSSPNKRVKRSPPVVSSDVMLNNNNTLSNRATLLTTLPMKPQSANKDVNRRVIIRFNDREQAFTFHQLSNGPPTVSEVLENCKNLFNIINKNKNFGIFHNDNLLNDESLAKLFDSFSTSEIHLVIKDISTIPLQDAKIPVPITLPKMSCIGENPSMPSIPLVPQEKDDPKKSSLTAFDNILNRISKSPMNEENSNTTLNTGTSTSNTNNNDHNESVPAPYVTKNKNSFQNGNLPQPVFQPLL
# Test: PBM E-score (8-mer binding enrichment) (E-score (-0.5 to 0.5)); higher = stronger / more preferred TF binding; most listed sequences are background and not binding sites
# Conditions: protein concentration: 200 nM; construct: GST-full length
# Method in brief: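 The E-score, a modified Wilcoxon-Mann-Whitney statistic, was computed by the Universal PBM Analysis Suite for every ungapped eight-base word pooled with its reverse complement. Scans behind it were normalised with masliner after bound GST-tagged yeast transcription factors were detected with fluorescent anti-GST. The proteins, at about 100-200 nM, had been applied to universal all-10-mer Agilent arrays made double-stranded by primer extension.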
row,Sequence,PBM E-score
1,CATATATA,0.256
2,AGGGACCC,-0.215
3,CCTGAGAC,0.014
4,ACGATCGG,-0.0237
5,CGCCGTTC,-0.0909
6,TCCTTTCA,-0.122
7,AGTAAAGC,-0.0939
8,AGATAAGC,-0.091
9,CGTAAGTA,-0.127
10,CCCAAAGG,-0.127
11,CTCACATC,0.124
12,AGTAAGCC,-0.116
13,AAGGTCTG,0.0962
14,ATTTCGCA,0.074
15,CCAATTCG,-0.173
16,CCTCTTAA,-0.0311
17,CATTGCTA,0.00135
18,CCACTACA,0.0708
19,AGGGAGAA,-0.106
20,CAACCAAA,0.137
21,AACTCTAC,-0.213
22,ACAAGTAG,0.0126
23,AGACGTTC,-0.178
24,ATGCGCCA,0.0153
25,ACCTAAAG,-0.258

row,Sequence,PBM E-score
1,GTCAAGAC,-0.0573
2,CCAAACCG,0.157
3,GCTCCGAC,0.0683
4,ATCTGGGC,-0.0127
5,ATTCTGCA,0.0255
6,GCAGTCCA,0.0282
7,ATTGTGGG,0.156
8,AGCGCGAT,0.121
9,CTTATCGC,-0.0118
10,TGGCACCA,-0.205
11,GACCGCAC,-0.0239
12,ACGGTTCC,0.0377
13,ACTCCGTA,0.0628
14,AGACCAGC,-0.133
15,CAAGATAA,0.0275
16,ATATGTAA,-0.0851
17,ATAATGGG,0.163
18,CGGACGAC,0.154
19,ATCGACTA,0.0457
20,TATCAGCA,0.0946
21,CAAGATGA,0.115
22,ACCCAAGG,0.095
23,TAACGGGA,-0.0715
24,ACGGAACT,-0.0293
25,AGAGATCA,-0.169

row,Sequence,PBM E-score
1,CTGTAATC,0.0295
2,ATCGAAAT,0.0284
3,CAAGTTCG,-0.0825
4,CAGGTTTA,0.106
5,ATGAGAAA,-0.227
6,TAAGACGA,-0.192
7,AGCGATGA,0.167
8,AATAAGCC,-0.0921
9,ACTGGTCT,-0.128
10,CGCAGTTA,-0.0699
11,CCGCCTGA,0.171
12,ATGAGCAT,0.0955
13,GAATCACC,0.392
14,GTATCGCA,-0.0516
15,CGGGACCG,-0.0295
16,ACTAGACT,0.00957
17,AGTGTCAA,0.0559
18,CAGATATC,0.24
19,ACGGTGCC,-0.0596
20,ACAAAGTC,-0.00877
21,CCGCTGAC,0.0403
22,AGTGAAAA,-0.0597
23,ACCTAGGT,0.0622
24,CCCGCACG,0.0854
25,CGTCGGAG,0.0698

row,Sequence,PBM E-score
1,GGGCGCCC,0.249
2,CACGTCTC,-0.16
3,ATAAACCG,0.144
4,CTAATGCA,-0.00665
5,ACCCTTTC,-0.147
6,ACAGACGC,-0.0186
7,GAACGTGA,-0.00628
8,GCCTCGTA,-0.0631
9,CACCTGCA,0.0182
10,GTAGCCGA,-0.05
11,CATGCTAA,-0.0194
12,GACGCTCC,-0.1
13,AACCGACC,0.13
14,ATGCTGAG,0.0978
15,CAACGCAG,-0.00574
16,GAATAACC,-0.147
17,GCCTGAAA,-0.0217
18,GCGCACCC,0.172
19,ACACACGG,0.155
20,CTGTCAAG,-0.135
21,GCTTTACC,-0.122
22,CCTCAAAA,-0.153
23,CTGACAAG,-0.0585
24,GGAACCCC,-0.198
25,GGCCTACC,-0.0215

row,Sequence,PBM E-score
1,TAACTGGA,-0.123
2,GCCGTGCA,-0.0556
3,CCTCGTAC,0.00947
4,AACTTTTA,-0.191
5,ATGAGTAC,0.347
6,CCTAGGTC,0.0186
7,ATCAAAAG,-0.182
8,AAGACGCC,0.0274
9,CTAATATA,-0.0362
10,AGGCCAGG,-0.0837
11,CAGAGTGG,-0.0459
12,AGAAACAG,-0.128
13,AGACGCCT,-0.223
14,GATTACCA,0.173
15,CATTAGGG,-0.198
16,AAAGTAGT,0.0363
17,ACGTAGTG,-0.0677
18,TCAATCGA,0.156
19,ATCCCAAA,-0.2
20,CCAGGCCC,-0.0629
21,ATTGCCCC,-0.107
22,CCTACTAC,-0.0741
23,ACATCACA,0.113
24,GCGTCAGA,-0.153
25,GCCGATTA,0.0479

row,Sequence,PBM E-score
1,AACTACTA,0.078
2,GGCACAGA,-0.092
3,AGCCGCCT,0.111
4,CGCGGACG,-0.145
5,ACTCTGAT,0.0653
6,ACTGGCGC,0.0737
7,CCCTTCTA,-0.218
8,ATTGAACG,-0.0248
9,ATCGTTGC,-0.0671
10,CTGGTAAA,-0.00847
11,ACGCTTTG,-0.068
12,GCTATCCC,-0.137
13,CAGCCTAG,0.0804
14,AAGCAAAT,-0.165
15,AGGACCAG,-0.133
16,ATCACGAG,-0.0506
17,AGCGTAAG,-0.188
18,CATGTCGC,-0.104
19,AGCTAGGC,-0.0605
20,ACGTCCCA,-0.131
21,ACTGCGAA,-0.322
22,AGGGTAGA,-0.0847
23,GGTACGGA,0.0649
24,ATGACTAC,0.462
25,CTAAGCGA,-0.136

row,Sequence,PBM E-score
1,CCAGTAAG,-0.0983
2,GCGCAGCA,-0.00237
3,GCTCCTAC,-0.125
4,GCAGCGAC,0.167
5,GGTTGCCA,0.141
6,AGCCCCCG,-0.234
7,ACAAGATA,0.0549
8,CGCCAACG,-0.0405
9,GGACGGAA,0.0124
10,CTGTATGC,-0.0249
11,GAAAGATC,-0.173
12,GGGGGGAA,0.0392
13,CAATGAGG,-0.31
14,AGTGCTAT,0.0504
15,CAATAGGC,-0.112
16,GGAAGGTA,-0.0276
17,GAGTAACC,0.106
18,GAGGGGCA,-0.113
19,TGTATGAA,0.0681
20,AACTTCAT,-0.0914
21,GGGATTCA,0.134
22,CCTGTTCG,-0.153
